In patent US20230250147A1, “GLP-1R AGONISTIC PEPTIDES WITH REDUCED ACTIVITY” (SANOFI, priority 2020, published 2023):

T1: Mouse GLP-1R (Mus musculus, UniProt O35659)
T1 construct: expressed in transfected cells; host or cells: HEK-293
T1 sequence (O35659 22-463): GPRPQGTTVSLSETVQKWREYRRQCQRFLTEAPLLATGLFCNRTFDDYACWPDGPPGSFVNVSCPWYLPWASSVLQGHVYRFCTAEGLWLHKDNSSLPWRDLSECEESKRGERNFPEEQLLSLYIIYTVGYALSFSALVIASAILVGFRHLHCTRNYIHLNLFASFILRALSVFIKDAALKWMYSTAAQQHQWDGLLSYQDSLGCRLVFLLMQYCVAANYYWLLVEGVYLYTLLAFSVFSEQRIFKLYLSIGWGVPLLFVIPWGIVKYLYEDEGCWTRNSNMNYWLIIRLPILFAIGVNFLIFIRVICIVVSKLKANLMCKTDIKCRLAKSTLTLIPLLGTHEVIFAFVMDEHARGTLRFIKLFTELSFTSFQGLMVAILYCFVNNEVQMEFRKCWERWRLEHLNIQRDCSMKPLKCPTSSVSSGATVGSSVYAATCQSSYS


Experiments:
Format in all cases: cell-based
[1] = target: T1, Mouse GLP-1R; experiment: HTRF cAMP assay in HEK-293 cells, mouse GLP-1R
Description: (§1) Recombinant HEK-293 cells were grown in T175 culture flasks placed at 37° C. to near confluence in medium (DMEM with 10% FBS) and collected in 2 mL vials in cell culture medium containing 10% DMSO in concentrations of 1-5×10^7 cells/mL. Each vial contained 1.8 mL cell suspension. The vials were slowly frozen to −80° C. in an isopropanol chamber, and then transferred to liquid nitrogen for long term storage.
(§2) Prior to their use, frozen cells were thawed quickly at 37° C., washed with 20 mL cell buffer (1×HBSS; 20 mM HEPES, 0.1% BSA) and centrifuged for 5 minutes at 900 rpm. Cells were resuspended in assay buffer (cell buffer plus 2 mM IBMX) and adjusted to a cell density of 1×10^6 cells/mL. For measurement, 5 μL cell suspension (final 5×10^3 cells/well) and 5 μL of test compound were added to a well of a 384-well plate, followed by incubation for 30 minutes at room temperature. […] The cAMP content of cells was determined using a kit from Cisbio Corp. (cat. no. 62AM4PEC) based on Homogenous Time Resolved Fluorescence (HTRF).

[2] = target: T2, Monkey GLP-1R (Macaca fascicularis, UniProt F8V479); experiment: HTRF cAMP assay in HEK-293 cells, monkey GLP-1R
T2 construct: expressed in transfected cells; host or cells: HEK-293
Description: as §1, §2

[3] = target: T3, Human GLP-1R (Homo sapiens, UniProt P43220); experiment: HTRF cAMP assay in HEK-293 cells, human GLP-1R
T3 construct: expressed in transfected cells; host or cells: HEK-293
Description: as §1, §2

T3 sequence (P43220 24-463): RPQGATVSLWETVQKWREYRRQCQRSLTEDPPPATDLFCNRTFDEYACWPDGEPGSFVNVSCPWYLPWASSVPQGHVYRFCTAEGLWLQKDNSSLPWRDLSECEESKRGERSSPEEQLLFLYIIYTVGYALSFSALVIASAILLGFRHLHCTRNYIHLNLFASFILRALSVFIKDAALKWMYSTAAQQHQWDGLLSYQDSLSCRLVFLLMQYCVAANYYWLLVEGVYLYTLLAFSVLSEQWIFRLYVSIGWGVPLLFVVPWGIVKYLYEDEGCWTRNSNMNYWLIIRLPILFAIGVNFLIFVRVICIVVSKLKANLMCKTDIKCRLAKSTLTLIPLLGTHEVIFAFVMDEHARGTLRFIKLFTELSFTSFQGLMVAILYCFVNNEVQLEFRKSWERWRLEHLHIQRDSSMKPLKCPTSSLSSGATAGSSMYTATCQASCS
T2 sequence (F8V479 24-463): as the sequence (P43220 24-463) above, with S112N, F120S, S202G, L205V, L237F, W241R, I249V counted along it

| Molecule | EC50 [1] [pM] | EC50 [2] [nM] | EC50 [3] [nM] |
| --- | --- | --- | --- |
| 18 (protein, Fusion Protein) HGEGTFTSDLSKQLEEERVQEFIEWLKAGGPSSGAPPPSGGGGGGGSGGGGSGGGGSA[… human IgG4 Fc with changes …]GGGSGSAHPIPDSSPLLQFGGQVRQRYLYTDDACQTEAHLEIREDGTVGGAADQSPESLLQLKALKPGVIQILGVKTSRFLCQRPDGALYGSLHFDPEACSFRELLLEDGYNVYQSEAHGLPLHLCGNKSPHRDPAPRGPARFLPLPGLPPAPPEPPGILAPQPPDVGSSDPLSMVGSQGRSPSYAS | 2.09 | 0.0102 | 0.0099 |
| 21 (protein, Fusion Protein) HGEGTFTSDLSIQLEEEAVQEFIEWLLATGPSSGAPPPSGGGGGGGSGGGGSGGGGSA[… human IgG4 Fc with changes …]GGGSGSAHPIPDSSPLLQFGGQVRQRYLYTDDACQTEAHLEIREDGTVGGAADQSPESLLQLKALKPGVIQILGVKTSRFLCQRPDGALYGSLHFDPEACSFRELLLEDGYNVYQSEAHGLPLHLCGNKSPHRDPAPRGPARFLPLPGLPPAPPEPPGILAPQPPDVGSSDPLSMVGSQGRSPSYAS | 4.19 | 0.0787 | 0.0938 |
| 88 (protein, Fusion Protein) HGEGTFTSDLSILLDEEAVREFIEWLLATGPSSGAPPPSGGGGGGGSGGGGSGGGGSA[… human IgG4 Fc with changes …]GGGSGSAHPIPDSSPLLQFGGQVRQRYLYTDDACQTEAHLEIREDGTVGGAADQSPESLLQLKALKPGVIQILGVKTSRFLCQRPDGALYGSLHFDPEACSFRELLLEDGYNVYQSEAHGLPLHLPGCKSPHRDPAPRGPARFLPLPGLPPAPPEPPGILAPQPPDVGSSDPLSMVGSQGRSPSYAS | – | – | 0.033 |
| 23 (protein, Fusion Protein) HGEGTFTSDLSIQLEEEAVQEFIEWLLATGPSSGAPPPSGGGGGGGSGGGGSGGGGSA[… human IgG4 Fc with changes …]GGGSGSAHPIPDSSPLLQFGGQVRQRYLYTDDACQTEAHLEIREDGTVGGAADQSPESLLQLKALKPGVIQILGVKTSRFLCQRPDGALYGSLHFDPEACSFRELLLEDGYNVYQSEAHGLPLHLPGCKSPHRDPAPRGPARFLPLPGLPPAPPEPPGILAPQPPDVGSSDPLSMVGSQGRSPSYAS | 3.32 | 0.0707 | 0.0787 |
| 90 (protein, Fusion Protein) HGEGTFTSDLSILLDEEAVQLFIEWLLATGPSSGAPPPSGGGGGGGSGGGGSGGGGSA[… human IgG4 Fc with changes …]GGGSGSAHPIPDSSPLLQFGGQVRQRYLYTDDACQTEAHLEIREDGTVGGAADQSPESLLQLKALKPGVIQILGVKTSRFLCQRPDGALYGSLHFDPEACSFRELLLEDGYNVYQSEAHGLPLHLPGCKSPHRDPAPRGPARFLPLPGLPPAPPEPPGILAPQPPDVGSSDPLSMVGSQGRSPSYAS | – | – | 0.336 |
| 24 (protein, Fusion Protein) HGEGTFTSDLSIQLEEEAVQEFIEWLLATGPSSGAPPPSGGGGGGGSGGGGSGGGGSA[… human IgG4 Fc with changes …]GGGSGSAHPIPDSSPLLQFGGQVRQRYLYTDDACQTEAHLEIREDGTVGGAADQSPESLLQLKALKPGVIQILGVKTSRFLCQRPDGALYGSLHFDPEACSFRELLLEDGYNVYQSEAHGLPLHLPGCKSPHRDPAPRGPARFLPLPGLPPAPPEPPGILAPQPPDVGSSDPLSMVYPSQGRSPSYAS | 2.66 | 0.0435 | 0.0488 |
| 20 (protein, Fusion Protein) HGEGTFTSDLSKQLEEERVQEFIEWLKAGGPSSGAPPPSGGGGGGGSGGGGSGGGGSA[… human IgG4 Fc with changes …]GGGSGSAHPIPDSSPLLQFGGQVRQRYLYTDDACQTEAHLEIREDGTVGGAADQSPESLLQLKALKPGVIQILGVKTSRFLCQRPDGALYGSLHFDPEACSFRELLLEDGYNVYQSEAHGLPLHLPGCKSPHRDPAPRGPARFLPLPGLPPAPPEPPGILAPQPPDVGSSDPLSMVYPSQGRSPSYAS | 1.97 | 0.00986 | 0.00949 |
| 22 (protein, Fusion Protein) HGEGTFTSDLSIQLEEEAVQEFIEWLLATGPSSGAPPPSGGGGGGGSGGGGSGGGGSA[… human IgG4 Fc with changes …]GGGSGSAHPIPDSSPLLQFGGQVRQRYLYTDDACQTEAHLEIREDGTVGGAADQSPESLLQLKALKPGVIQILGVKTSRFLCQRPDGALYGSLHFDPEACSFRELLLEDGYNVYQSEAHGLPLHLCGNKSPHRDPAPRGPARFLPLPGLPPAPPEPPGILAPQPPDVGSSDPLSMVYPSQGRSPSYAS | 3.88 | 0.0739 | 0.0856 |
| 174 (protein, Fusion Protein) HGEGTFTSDLSKQLAKRLVREFIEWLIEGGPSSGAPPPSGGGGGGGSGGGGSGGGGSA[… human IgG4 Fc with changes …]GGGSGSAHPIPDSSPLLQFGGQVRQRYLYTDDACQTEAHLEIREDGTVGGAADQSPESLLQLKALKPGVIQILGVKTSRFLCQRPDGALYGSLHFDPEACSFRELLLEDGYNVYQSEAHGLPLHLPGCKSPHRDPAPRGPARFLPLPGLPPAPPEPPGILAPQPPDVGSSDPLSMVGSQGRSPSYAS | – | – | 0.077 |

Further molecules by falling EC50 [3], results first:

| EC50 [1] [pM] | EC50 [2] [nM] | EC50 [3] [nM] | Molecule |
| --- | --- | --- | --- |
| – | – | 0.267 | 171 (protein, Fusion Protein) HGEGTFTSDKSKQLAKRLVRLFIEWLIKGGPSSGAPPPSGGGGGGGSGGGGSGGGGSA[… human IgG4 Fc with changes …]GGGSGSAHPIPDSSPLLQFGGQVRQRYLYTDDACQTEAHLEIREDGTVGGAADQSPESLLQLKALKPGVIQILGVKTSRFLCQRPDGALYGSLHFDPEACSFRELLLEDGYNVYQSEAHGLPLHLPGCKSPHRDPAPRGPARFLPLPGLPPAPPEPPGILAPQPPDVGSSDPLSMVGSQGRSPSYAS |
| – | – | 0.0453 | 89 (protein, Fusion Protein) HGEGTFTSDLSILLDEEAVRLFIEWLLATGPSSGAPPPSGGGGGGGSGGGGSGGGGSA[… human IgG4 Fc with changes …]GGGSGSAHPIPDSSPLLQFGGQVRQRYLYTDDACQTEAHLEIREDGTVGGAADQSPESLLQLKALKPGVIQILGVKTSRFLCQRPDGALYGSLHFDPEACSFRELLLEDGYNVYQSEAHGLPLHLPGCKSPHRDPAPRGPARFLPLPGLPPAPPEPPGILAPQPPDVGSSDPLSMVGSQGRSPSYAS |
| – | – | 0.044 | 96 (protein, Fusion Protein) HGEGTFTSDLSILLEEEAVRLFIEWLLATGPSSGAPPPSGGGGGGGSGGGGSGGGGSA[… human IgG4 Fc with changes …]GGGSGSAHPIPDSSPLLQFGGQVRQRYLYTDDACQTEAHLEIREDGTVGGAADQSPESLLQLKALKPGVIQILGVKTSRFLCQRPDGALYGSLHFDPEACSFRELLLEDGYNVYQSEAHGLPLHLPGCKSPHRDPAPRGPARFLPLPGLPPAPPEPPGILAPQPPDVGSSDPLSMVGSQGRSPSYAS |
| – | – | 0.0185 | 95 (protein, Fusion Protein) HGEGTFTSDLSILLEEEAVREFIEWLLATGPSSGAPPPSGGGGGGGSGGGGSGGGGSA[… human IgG4 Fc with changes …]GGGSGSAHPIPDSSPLLQFGGQVRQRYLYTDDACQTEAHLEIREDGTVGGAADQSPESLLQLKALKPGVIQILGVKTSRFLCQRPDGALYGSLHFDPEACSFRELLLEDGYNVYQSEAHGLPLHLPGCKSPHRDPAPRGPARFLPLPGLPPAPPEPPGILAPQPPDVGSSDPLSMVGSQGRSPSYAS |
| 2.16 | 0.0109 | 0.0112 | 19 (protein, Fusion Protein) HGEGTFTSDLSKQLEEERVQEFIEWLKAGGPSSGAPPPSGGGGGGGSGGGGSGGGGSA[… human IgG4 Fc with changes …]GGGSGSAHPIPDSSPLLQFGGQVRQRYLYTDDACQTEAHLEIREDGTVGGAADQSPESLLQLKALKPGVIQILGVKTSRFLCQRPDGALYGSLHFDPEACSFRELLLEDGYNVYQSEAHGLPLHLCGNKSPHRDPAPRGPARFLPLPGLPPAPPEPPGILAPQPPDVGSSDPLSMVYPSQGRSPSYAS |
